According to patent US6716822B2, “Therapeutic agent for ischemia which inhibits apoptosis under ischemic condition” (priority 2000, dated 2004):

These compounds were tested on HepG2 cells (assay: HepG2 cell viability under low oxygen (1% v/v) condition, trypan blue exclusion). Conditions: not given.
Type: cell-based, human

| Compound | Concentration at which cells were viable for a certain period of time |
| --- | --- |
| CN[C@@H]1[C@@H](O)[C@@H](O[C@@H]2[C@@H](O)[C@H](O[C@H]3O[C@H]([C@@H](C)O)[C@@H](O)[C@H](O)[C@H]3N)[C@@H](N)C[C@H]2N)OC[C@]1(C)O [geneticin] | 10 to 100 µg/mL |

Same assay, conditions: HepG2 cells, 1% (v/v) oxygen

| Compound | Enhancement effect on cell viability under hypoxic condition (in words) | Effective concentration exerting enhancement effects on cell viability |
| --- | --- | --- |
| COc1ccc(CN2CCNCC2)c(OC)c1OC [trimetazidine] | did not show positive results | – |
| neomycin | effective | – |
| C[C@@H]1C[C@@H]([C@H](O)CC2CC(=O)NC(=O)C2)C(=O)[C@@H](C)C1 [cyclohexamide] | did not show any effect | – |
| O=C(N[C@H](CO)[C@H](O)c1ccc([N+](=O)[O-])cc1)C(Cl)Cl [chloramphenicol] | effective | – |
| O=C(O)c1cn(C2CC2)c2cc(N3CCNCC3)c(F)cc2c1=O [ciprofloxacin] | effective | – |
| gentamicin | effective | 100 to 1000 µg/mL |
| O=c1[nH]cc(F)c(=O)[nH]1 [5-fluorouracil] | did not show any effect | – |
| CC1(C)S[C@@H]2[C@H](NC(=O)[C@H](N)c3ccc(O)cc3)C(=O)N2[C@H]1C(=O)O [amoxillin] | did not show enhancement effect | – |
| COc1ccc(C[C@H](N)C(=O)N[C@H]2[C@@H](O)[C@H](n3cnc4c(N(C)C)ncnc43)O[C@@H]2CO)cc1 [puromycin] | did not show any effect | – |
| CC[C@H]1OC(=O)[C@H](C)[C@@H](O[C@H]2C[C@@](C)(OC)[C@@H](O)[C@H](C)O2)[C@H](C)[C@@H](O[C@@H]2O[C@H](C)C[C@H](N(C)C)[C@H]2O)[C@](C)(O)C[C@@H](C)C(=O)[C@H](C)[C@@H](O)[C@]1(C)O [erythromycin] | not effective | – |
| CC1(C)S[C@@H]2[C@H](NC(=O)[C@H](N)c3ccccc3)C(=O)N2[C@H]1C(=O)O [ampicillin] | did not show enhancement effect | – |
